The source of these data is paper PMC6005513.

Where a chain is given by its changes, count along the chain named. No constants are given. Whether binding was seen depends on the method and setting. Some binding calls cover weakened binding; strength is not graded here.

Common to all, as to assay: binding of fluorescently labelled peptide to transfected cells, plate fluorescence scan; 10 nM myr-preS1-Al633 peptide in DMEM, 20 min, 37°C, on NTCP/Ntcp-transfected HEK293 cells in 24-well plates; washed with DMEM 2 min at 37°C; plates scanned at room temperature (Typhoon FLA 7000, 633 nm), total signal per area; only the binder purified
For experiment [1], the target named is T1, Chlorocebus aethiops (grivet) Ntcp, wild type (Chlorocebus aethiops).
T1 sequence: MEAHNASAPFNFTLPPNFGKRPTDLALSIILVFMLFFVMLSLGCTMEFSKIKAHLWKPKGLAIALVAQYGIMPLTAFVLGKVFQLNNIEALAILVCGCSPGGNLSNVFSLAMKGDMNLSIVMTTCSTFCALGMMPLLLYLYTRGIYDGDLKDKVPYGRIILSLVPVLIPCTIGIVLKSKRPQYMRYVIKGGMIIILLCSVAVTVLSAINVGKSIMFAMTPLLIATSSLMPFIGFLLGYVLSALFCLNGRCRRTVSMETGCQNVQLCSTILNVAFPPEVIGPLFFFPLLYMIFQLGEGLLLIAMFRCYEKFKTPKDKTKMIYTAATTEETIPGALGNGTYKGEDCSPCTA

In experiment [2] the target is T2, Macaca silenus (lion-tailed macaque) Ntcp, wild type (Macaca silenus).
T2 sequence: T1 sequence

Experiment [3] addresses T3, Macaca mulatta (rhesus macaque) Ntcp R158G (Macaca mulatta).
T3 sequence: T1 sequence with R158G

The target of experiment [4] is T4, Callithrix jacchus (common marmoset) Ntcp, wild type (Callithrix jacchus) (UniProt F7HA36).
T4 sequence: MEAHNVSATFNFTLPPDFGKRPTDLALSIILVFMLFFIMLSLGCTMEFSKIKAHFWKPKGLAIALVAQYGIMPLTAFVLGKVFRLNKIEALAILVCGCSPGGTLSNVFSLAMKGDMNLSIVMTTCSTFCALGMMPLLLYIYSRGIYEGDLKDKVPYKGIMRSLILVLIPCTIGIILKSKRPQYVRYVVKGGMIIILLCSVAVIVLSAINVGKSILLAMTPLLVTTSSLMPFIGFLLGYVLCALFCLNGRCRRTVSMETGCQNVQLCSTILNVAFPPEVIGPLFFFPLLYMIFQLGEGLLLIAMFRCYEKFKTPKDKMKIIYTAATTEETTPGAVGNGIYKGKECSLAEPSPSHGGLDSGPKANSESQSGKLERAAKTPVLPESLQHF

In experiment [5] the target is T5, Chlorocebus aethiops (grivet) Ntcp R158G (Chlorocebus aethiops).
T5 sequence: T1 sequence with R158G

The target of the next experiment is T6, human NTCP G158V (human) (UniProt Q14973).
T6 sequence: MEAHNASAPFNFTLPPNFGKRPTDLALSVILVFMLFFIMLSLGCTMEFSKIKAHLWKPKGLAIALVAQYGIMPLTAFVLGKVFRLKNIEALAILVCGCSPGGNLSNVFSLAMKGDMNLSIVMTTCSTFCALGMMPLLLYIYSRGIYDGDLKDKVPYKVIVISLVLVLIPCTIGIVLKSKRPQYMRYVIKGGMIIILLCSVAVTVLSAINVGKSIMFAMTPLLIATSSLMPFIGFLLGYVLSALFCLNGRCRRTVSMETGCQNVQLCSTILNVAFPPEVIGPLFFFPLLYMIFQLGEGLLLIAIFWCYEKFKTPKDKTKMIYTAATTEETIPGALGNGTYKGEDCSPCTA

As for “HBV myr-preS1-Al633-peptide (from UniProt P03138 2-48)”, the binding entry in experiment [1] is listed as “no binding (tested: 10 nM)”; in experiment [2] it was “no binding (tested: 10 nM)”; in experiment [3], “binds”; in experiment [4], “binds”; in experiment [5], “binds”; with human NTCP G158V (human), “no binding (tested: 10 nM)”.
